{"source": "the supplement of paper PMC8728848", "binders": {"B1": {"name": "CML1 (Coprinopsis cinerea) (protein)", "chain": "MAIFHTGSELFIITRGPGKLTLLTWGGLNNLRSVIGAIPTENTGVTKWAVSFSHNYTRFSFIWEGQGEACYQIGNGLTRSPVGRSWSSSSTIHWGSSTVITEDVTSVVPGAVNRDKVTTAYALPDNL"}}, "assay_in_all_cases": "glycan array binding signal (z-score within array); higher = stronger binding", "conditions_in_all_cases": "glycan notation: IUPAC condensed, linker removed", "key": {"[1]": {"target": "Gal(b1-4)GlcNAc(b1-3)Gal(b1-4)GlcNAc(b1-3)[Gal(b1-4)GlcNAc(b1-3)Gal(b1-4)GlcNAc(b1-6)]GalNAc", "summary_of_the_method": "(§1)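 Glycan array data were curated from 3228 arrays in the Consortium for Functional Glycomics database and kept only where the protein sequence was available. Glycan names were converted to IUPAC-condensed notation, and columns mapping to the same glycan were averaged. The binding signal is a within-array Z-score, averaged across arrays of the same protein sequence at different concentrations or buffers and across linkers. Negative Z-scores can be read as non-binding.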"}, "[2]": {"target": "Gal(b1-4)GlcNAc(b1-3)Gal(b1-4)GlcNAc(b1-6)[Gal(b1-3)]GalNAc", "summary_of_the_method": "as §1"}, "[3]": {"target": "Gal(b1-4)GlcNAc(b1-3)Gal(b1-4)[Fuc(a1-3)]GlcNAc(b1-3)Gal(b1-4)[Fuc(a1-3)]GlcNAc", "summary_of_the_method": "as §1"}, "[4]": {"target": "Gal(b1-4)GlcNAc(b1-3)GalNAc", "summary_of_the_method": "as §1"}, "[5]": {"target": "Gal(b1-4)GlcNAc(b1-3)[Fuc(a1-3)GlcNAc(b1-6)]Gal(b1-4)Glc", "summary_of_the_method": "as §1"}, "[6]": {"target": "Gal(b1-4)GlcNAc(b1-3)[Gal(b1-4)GlcNAc(b1-6)]Gal(b1-4)GlcNAc", "summary_of_the_method": "as §1"}, "[7]": {"target": "Gal(b1-4)GlcNAc(b1-3)[GlcNAc(b1-6)]Gal(b1-4)GlcNAc", "summary_of_the_method": "as §1"}, "[8]": {"target": "Gal(b1-4)GlcNAc(b1-6)Gal(b1-4)GlcNAc", "summary_of_the_method": "as §1"}, "[9]": {"target": "Gal(b1-4)GlcNAc(b1-6)GalNAc", "summary_of_the_method": "as §1"}, "[10]": {"target": "Gal(b1-4)GlcNAc(b1-6)[Gal(b1-3)]GalNAc", "summary_of_the_method": "as §1"}, "[11]": {"target": "Gal(b1-4)GlcNAc(b1-6)[Gal(b1-4)GlcNAc(b1-3)]GalNAc", "summary_of_the_method": "as §1"}, "Gal(b1-4)GlcNAc6P": {"target": "Gal(b1-4)GlcNAc6P", "summary_of_the_method": "as §1"}, "Gal(b1-6)Gal": {"target": "Gal(b1-6)Gal", "summary_of_the_method": "as §1"}, "Gal3S(b1-3)GalNAc": {"target": "Gal3S(b1-3)GalNAc", "summary_of_the_method": "as §1"}, "Gal3S(b1-3)GlcNAc": {"target": "Gal3S(b1-3)GlcNAc", "summary_of_the_method": "as §1"}, "[12]": {"target": "Gal3S(b1-3)[Fuc(a1-4)]GlcNAc", "summary_of_the_method": "as §1"}, "Gal3S(b1-4)Glc": {"target": "Gal3S(b1-4)Glc", "summary_of_the_method": "as §1"}, "Gal3S(b1-4)Glc6S": {"target": "Gal3S(b1-4)Glc6S", "summary_of_the_method": "as §1"}, "Gal3S(b1-4)GlcNAc": {"target": "Gal3S(b1-4)GlcNAc", "summary_of_the_method": "as §1"}, "[13]": {"target": "Gal3S(b1-4)[Fuc(a1-3)]Glc6S", "summary_of_the_method": "as §1"}, "[14]": {"target": "Gal3S(b1-4)[Fuc(a1-3)]GlcNAc", "summary_of_the_method": "as §1"}, "[15]": {"target": "Gal3S(b1-4)[Fuc(a1-3)]GlcNAc6S", "summary_of_the_method": "as §1"}, "Gal3S4S(b1-4)GlcNAc": {"target": "Gal3S4S(b1-4)GlcNAc", "summary_of_the_method": "as §1"}, "Gal3S6S(b1-4)GlcNAc": {"target": "Gal3S6S(b1-4)GlcNAc", "summary_of_the_method": "as §1"}, "Gal3S6S(b1-4)GlcNAc6S": {"target": "Gal3S6S(b1-4)GlcNAc6S", "summary_of_the_method": "as §1"}, "Gal4S(b1-4)GlcNAc": {"target": "Gal4S(b1-4)GlcNAc", "summary_of_the_method": "as §1"}, "Gal4S6S(b1-4)GlcNAc": {"target": "Gal4S6S(b1-4)GlcNAc", "summary_of_the_method": "as §1"}, "Gal6P(b1-4)GlcNAc": {"target": "Gal6P(b1-4)GlcNAc", "summary_of_the_method": "as §1"}, "Gal6S(b1-3)GlcNAc": {"target": "Gal6S(b1-3)GlcNAc", "summary_of_the_method": "as §1"}, "Gal6S(b1-3)GlcNAc6S": {"target": "Gal6S(b1-3)GlcNAc6S", "summary_of_the_method": "as §1"}, "Gal6S(b1-4)Glc": {"target": "Gal6S(b1-4)Glc", "summary_of_the_method": "as §1"}, "Gal6S(b1-4)Glc6S": {"target": "Gal6S(b1-4)Glc6S", "summary_of_the_method": "as §1"}, "Gal6S(b1-4)GlcNAc": {"target": "Gal6S(b1-4)GlcNAc", "summary_of_the_method": "as §1"}, "Gal6S(b1-4)GlcNAc6S": {"target": "Gal6S(b1-4)GlcNAc6S", "summary_of_the_method": "as §1"}, "GalNAc(a1-3)Gal": {"target": "GalNAc(a1-3)Gal", "summary_of_the_method": "as §1"}, "GalNAc(a1-3)GalNAc": {"target": "GalNAc(a1-3)GalNAc", "summary_of_the_method": "as §1"}, "[16]": {"target": "GalNAc(a1-3)GalNAc(b1-3)Gal(a1-4)Gal(b1-4)Glc", "summary_of_the_method": "as §1"}, "[17]": {"target": "GalNAc(a1-3)GalNAc(b1-3)Gal(a1-4)Gal(b1-4)GlcNAc", "summary_of_the_method": "as §1"}, "GalNAc(b1-3)Gal": {"target": "GalNAc(b1-3)Gal", "summary_of_the_method": "as §1"}, "[18]": {"target": "GalNAc(b1-3)Gal(a1-4)Gal(b1-4)GlcNAc", "summary_of_the_method": "as §1"}, "[19]": {"target": "GalNAc(b1-3)Gal(a1-4)Gal(b1-4)GlcNAc(b1-3)Gal(b1-4)Glc", "summary_of_the_method": "as §1"}, "[20]": {"target": "GalNAc(b1-3)Gal(a1-6)Gal(b1-4)Glc", "summary_of_the_method": "as §1"}, "GalNAc(b1-3)GalNAc": {"target": "GalNAc(b1-3)GalNAc", "summary_of_the_method": "as §1"}, "GalNAc(b1-3)GlcNAc": {"target": "GalNAc(b1-3)GlcNAc", "summary_of_the_method": "as §1"}, "GalNAc(b1-4)Gal(b1-4)Glc": {"target": "GalNAc(b1-4)Gal(b1-4)Glc", "summary_of_the_method": "as §1"}}, "note": "The list shows a part of the results.", "data": [{"binder": "B1", "values": [{"measurement": "glycan array binding signal (z-score)", "setting": "[1]", "value": -0.323}, {"measurement": "glycan array binding signal (z-score)", "setting": "[2]", "value": -0.343}, {"measurement": "glycan array binding signal (z-score)", "setting": "[3]", "value": 0.275}, {"measurement": "glycan array binding signal (z-score)", "setting": "[4]", "value": -0.334}, {"measurement": "glycan array binding signal (z-score)", "setting": "[5]", "value": -0.262}, {"measurement": "glycan array binding signal (z-score)", "setting": "[6]", "value": -0.328}, {"measurement": "glycan array binding signal (z-score)", "setting": "[7]", "value": -0.361}, {"measurement": "glycan array binding signal (z-score)", "setting": "[8]", "value": -0.341}, {"measurement": "glycan array binding signal (z-score)", "setting": "[9]", "value": -0.323}, {"measurement": "glycan array binding signal (z-score)", "setting": "[10]", "value": -0.352}, {"measurement": "glycan array binding signal (z-score)", "setting": "[11]", "value": -0.336}, {"measurement": "glycan array binding signal (z-score)", "setting": "Gal(b1-4)GlcNAc6P", "value": -0.341}, {"measurement": "glycan array binding signal (z-score)", "setting": "Gal(b1-6)Gal", "value": -0.342}, {"measurement": "glycan array binding signal (z-score)", "setting": "Gal3S(b1-3)GalNAc", "value": -0.335}, {"measurement": "glycan array binding signal (z-score)", "setting": "Gal3S(b1-3)GlcNAc", "value": -0.34}, {"measurement": "glycan array binding signal (z-score)", "setting": "[12]", "value": 3.48}, {"measurement": "glycan array binding signal (z-score)", "setting": "Gal3S(b1-4)Glc", "value": -0.352}, {"measurement": "glycan array binding signal (z-score)", "setting": "Gal3S(b1-4)Glc6S", "value": -0.346}, {"measurement": "glycan array binding signal (z-score)", "setting": "Gal3S(b1-4)GlcNAc", "value": -0.325}, {"measurement": "glycan array binding signal (z-score)", "setting": "[13]", "value": 2.82}, {"measurement": "glycan array binding signal (z-score)", "setting": "[14]", "value": 3.35}, {"measurement": "glycan array binding signal (z-score)", "setting": "[15]", "value": -0.342}, {"measurement": "glycan array binding signal (z-score)", "setting": "Gal3S4S(b1-4)GlcNAc", "value": -0.342}, {"measurement": "glycan array binding signal (z-score)", "setting": "Gal3S6S(b1-4)GlcNAc", "value": -0.312}, {"measurement": "glycan array binding signal (z-score)", "setting": "Gal3S6S(b1-4)GlcNAc6S", "value": -0.288}, {"measurement": "glycan array binding signal (z-score)", "setting": "Gal4S(b1-4)GlcNAc", "value": -0.34}, {"measurement": "glycan array binding signal (z-score)", "setting": "Gal4S6S(b1-4)GlcNAc", "value": -0.333}, {"measurement": "glycan array binding signal (z-score)", "setting": "Gal6P(b1-4)GlcNAc", "value": -0.339}, {"measurement": "glycan array binding signal (z-score)", "setting": "Gal6S(b1-3)GlcNAc", "value": -0.325}, {"measurement": "glycan array binding signal (z-score)", "setting": "Gal6S(b1-3)GlcNAc6S", "value": -0.336}, {"measurement": "glycan array binding signal (z-score)", "setting": "Gal6S(b1-4)Glc", "value": -0.319}, {"measurement": "glycan array binding signal (z-score)", "setting": "Gal6S(b1-4)Glc6S", "value": -0.324}, {"measurement": "glycan array binding signal (z-score)", "setting": "Gal6S(b1-4)GlcNAc", "value": -0.347}, {"measurement": "glycan array binding signal (z-score)", "setting": "Gal6S(b1-4)GlcNAc6S", "value": -0.288}, {"measurement": "glycan array binding signal (z-score)", "setting": "GalNAc(a1-3)Gal", "value": -0.355}, {"measurement": "glycan array binding signal (z-score)", "setting": "GalNAc(a1-3)GalNAc", "value": -0.342}, {"measurement": "glycan array binding signal (z-score)", "setting": "[16]", "value": -0.337}, {"measurement": "glycan array binding signal (z-score)", "setting": "[17]", "value": -0.346}, {"measurement": "glycan array binding signal (z-score)", "setting": "GalNAc(b1-3)Gal", "value": -0.355}, {"measurement": "glycan array binding signal (z-score)", "setting": "[18]", "value": -0.329}, {"measurement": "glycan array binding signal (z-score)", "setting": "[19]", "value": -0.315}, {"measurement": "glycan array binding signal (z-score)", "setting": "[20]", "value": -0.341}, {"measurement": "glycan array binding signal (z-score)", "setting": "GalNAc(b1-3)GalNAc", "value": -0.349}, {"measurement": "glycan array binding signal (z-score)", "setting": "GalNAc(b1-3)GlcNAc", "value": -0.34}, {"measurement": "glycan array binding signal (z-score)", "setting": "GalNAc(b1-4)Gal(b1-4)Glc", "value": -0.324}]}]}
